Test results taken from the supplement of paper PMC6531468.
The other results are listed elsewhere or left out. Values come from read counts of a selection and are noisy. Scores sum up all selected molecules that hold the word; the word was not tested alone.

These sequences were tested on IMP3 KH1-2 (assay: 6-mer SELEX enrichment z-score vs GST control; IMP3 is the RNA-binding protein IGF2BP3; higher = more enriched by binding). Settings: construct: KH1-2 (164-376); SELEX round: R4.
Experimental: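 SELEX-seq with GST-tagged IMP3 KH1-2 (Pro164-Phe376) and an N40 RNA pool, round 4 (stringent 300/600 mM KCl washes). 6-mer z-score of sequence-tag enrichment normalised to the corresponding GST SELEX round; RNA k-mers written as DNA (T for U).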

Chain of IMP3 KH1-2 (chain, as listed by the source): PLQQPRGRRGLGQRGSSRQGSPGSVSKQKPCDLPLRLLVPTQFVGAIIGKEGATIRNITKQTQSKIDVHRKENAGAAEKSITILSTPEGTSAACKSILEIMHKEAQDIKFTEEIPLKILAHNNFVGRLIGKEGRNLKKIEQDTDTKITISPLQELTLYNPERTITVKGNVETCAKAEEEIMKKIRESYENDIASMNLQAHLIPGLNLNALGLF

Sequence	6-mer SELEX enrichment z-score
TCCCCG	-0.246
CAGCGT	-2.75
ATGAGG	0.868
CACCAC	0.663
TTTGTC	0.147
TCTAAG	-0.285
CTATTG	0.24
CGGTGC	-0.382
TTATTG	0.569
TTGCCA	-0.064
CTTTGA	-0.154
GTGTTT	-0.099
ACAGTT	0.56
TGCACG	0.653
GCGACT	-0.551
CTTGGG	-0.413
TTTTCC	1.07
AGCGCT	-0.921
TGAGGC	0.348
TAGGCG	0.179

Sequence	6-mer SELEX enrichment z-score
TGCTCA	-0.119
GATCGC	-0.249
GTTGCC	-0.624
TGCGAC	-0.628
TTGCTG	0.318
GCCCTT	-0.245
CCGTAC	-0.61
TTCTCC	0.532
ATAGCA	1.09
GCTTAA	0.074
ATGACA	1.56
TAACTG	0.472
GGATAC	-0.016
TAACAA	1.42
TCGCGT	-0.717
CGGCTA	0.316
TGGCCA	0.506
TTAGCT	0.199
GCCGAG	-1.24
TCTGGA	-0.136
